{"source": "PubChem BioAssay AID1794797", "about": "(DTP/NCI, 2022)", "test_system": "KM20L2 colon", "test": "NCI-60 one-dose screen, 48 h (100 = growth as untreated, 0 = no growth, -100 = all killed)", "conditions": "2.5 mM", "method": "Growth inhibition of the KM20L2 human tumor cell line is measured as a screen for anti-cancer activity. Cells are grown in 96 well plates and exposed to the test compound for 48 hours. Compounds are tested at a single concentration, which is 10^-5 M for most compounds. The reported endpoint is percent growth (GI% or GIPRCNT), where numbers from 0 - 100% represent growth inhibition, and numbers from -100% - 0 represent cell death. For example, a value of 40 represents 60% growth inhibition. A value of 0 means no net growth occurred over the course of the experiment. A value of -40 indicates 40% of cells at the beginning of the experiment died by the end of the experiment. A value of -100 means all cells are dead at the end of the experiment.\nNCI-60 Human Tumor Cell Lines Screen was performed using the standard one-dose NCI protocol, which is described in more detail at https://dtp.cancer.gov/discovery_development/nci-60/default.htm.\nCompounds with GIPRCNT values below 10 were considered active. Activity score was based on GIPRCNT using the following formula: […]\nScore is 0 for GIPRCNT values of 100 or above, 50 for GIPRCNT values of 0, and 100 for GIPRCNT values of -100.", "note": "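Growth was measured after 48 h exposure to one concentration of compound in 96-well plates. Values under 10 count as active.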 For part of its entries the source gives two or more results. The other results are left out here. An entry can have further records. These are repeated runs of one drug, at the concentration stated with the values; each value is one run. Marks such as (2×) give the number of equal values in this list.", "data": [{"smiles": "O=c1[nH]cc(F)c(=O)[nH]1", "values": [{"measurement": "growth", "setting": "runs of 1991", "value": "14.3, 13.1, 20, 24.9, 10.1, 12.5, 21, 22.9, 21.9, 18.3, 14.9, 18.9 (2×), 25.8, 32.5, 2.61, 17.1%"}, {"measurement": "growth", "setting": "runs of 1992", "value": "11.2, 9.83, 14.5 (3×), 15.1 (2×), 9.85 (2×), 17, 7.12, 23.8, 22.3, 33, 11.5, 22.5, 23 (2×), 16.9, 28.8, 29.7, 18.4 (2×), 10.2, 24, 12.4, 5.4, 20.8, 21.2, 15.7, 5.27, 18.1, 19.7, 19.5, 18.3 (4×), 11.1, 4.57, 24.5, 25.3, 2.01, -17.2, 17.9, 9.94, 17.3, 17.5, 19.1 (2×), 11.8, 3.23, -25.2, 28.7, 4.24, 13.8, 18.9 (2×), 17.6, 25.5, 16, 9.22, 12.1, 5.96, 18, 32.5, 21.1, 27.6, 18.5, 7.45, 122, 13, 10.8, 21.8, 23.5, 9.62, 14.7, -19.8, 6.62, 7.56, 24.4, 12.3, -0.277%"}]}]}
